# According to PubChem BioAssay AID686979 (National Center for Advancing Translational Sciences (NCATS), 2013):
# The campaign covered roughly 420,000 compounds. About 50,000 (12%) were called active. This list was built around the results that the source calls inconclusive (neither active nor inactive); the mix of calls is not that of the screen. Calls follow the shape of the dose curve; as a rule, active = well fitted inhibition curve with a large enough effect; inconclusive = small, poorly fitted or top-dose-only effect; inactive = flat fitted curve, though single readings scatter. Potencies of inconclusive entries are left out as doubtful fits.
# Test: qHTS for Inhibitors of human tyrosyl-DNA phosphodiesterase 1 (TDP1): qHTS in cells in presence of CPT; also: nearly all actives have a fitted effect of over 55% in size
# Settings: chicken DT40 Tdp1-/-;hTDP1 cells + 20 nM CPT, ATP luminescence, 48 h; activity change, negative = growth inhibition: at 46.2 µM (top of the series) unless noted
# Procedure, shortened: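 Cell growth measured by CellTiter-Glo luminescence after a minimum 48 h, 37 C compound exposure with 20 nM CPT in Tdp1-knockout DT40 cells stably expressing hTDP1, seeded 400/well; qHTS titration format.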
# % is scaled to controls: 0 for no effect and ±100 for the full control effect; potency is read from the fitted curve at half-maximal effect; tags tell the direction and shape of the fitted curve.
Compound,Potency,"activity change, negative = growth inhibition"
O=C(Nc1ccc2c(c1)C(=O)NC2=O)c1cccc(Cl)c1,inactive,
O=C(CSc1ncnc2sc3c(c12)CCCCC3)NCc1ccco1,active: 9.2 µM,
O=c1ccc(-c2ccc(S(=O)(=O)NCC3CCN(Cc4ccccc4F)CC3)s2)n[nH]1,inactive,
Cc1cc(C(=O)NNc2cc(Cl)ccc2Cl)no1,"inconclusive [inhibitor, single point]",
CC(C)(C)c1ccc(/C=N/NC(=S)NCc2ccccc2)cc1,"inconclusive [inhibitor, single point]",
Cc1ccc(S(=O)(=O)N(C)c2ccc(OCC(=O)NCC3(N(C)C)CCCCC3)cc2)cc1,"inconclusive [inhibitor, single point]",
C/C=C/C1=CC(=O)C[C@H](c2ccc(Cl)cc2)C1,"inconclusive [inhibitor, single point]",
CCCOc1ccc(CC(=O)NCc2ccco2)cc1OC,inactive,
Cn1nc([N+](=O)[O-])nc1Sc1nnc(-c2ccccc2)o1,active: 5.17 µM,
C[C@@H]1CN([C@H](C)CO)C(=O)c2cc(Br)cnc2O[C@H]1CN(C)C(=O)CC1CC1,inactive,
CCCc1cc(C(=O)Nc2c(C)nn(Cc3ccc(C)cc3)c2C)no1,"inconclusive [inhibitor, partial curve]",
Cc1ccc(C)c(NC(=S)NNC(=S)Nc2ccc(C(C)C)cc2)c1,inactive,
O=C(NCC1CCCO1)c1ccccc1NS(=O)(=O)c1ccc(Br)s1 (stereo not drawn),inactive,
CCN1CCN(C(c2ccccc2)c2nnnn2C(C)(C)C)CC1 (stereo not drawn),inactive,
CCOC(=O)c1c(C)[nH]c(C)c1C(=O)COc1ncnc2ccccc12,"inconclusive [inhibitor, single point]",
O=C(CCn1c(=O)c2cccn2c2ccc(F)cc21)NCCc1ccccc1,active: 20.6 µM,
Cc1cc2c3c(c1)C(C)(c1ccccc1)CC(C)(C)N3C(=O)C21C(C#N)=C(N)OC2=C1C(=O)CC(C)(C)C2 (stereo not drawn),active: 20.6 µM,
Cc1ccc(C(=O)/C=C/c2ccc(Br)cc2)o1,"inconclusive [inhibitor, single point]",
Cc1nc(OCC(=O)c2ccc(Cl)cc2)c(C#N)c2c1COC(C)(C)C2,"inconclusive [inhibitor, single point]",
Cc1nn(-c2ccccc2)c2sc(C(=O)OCc3nnc(-c4ccccc4)o3)cc12,inactive,
O=C(CCCn1ncn2c(cc3occc32)c1=O)N1CCc2ccccc2C1,inactive,
Cc1ccc(C(O)c2ncc(-c3ccccc3Cl)[nH]2)cc1 (stereo not drawn),inactive,
Cc1ccc(S(=O)(=O)N2CCN(C(=O)c3ccccc3)C2C(C)C)cc1 (stereo not drawn),,inconclusive: -31.4% [inhibitor]
Cc1nc2ccccc2nc(C)c1=NO,"inconclusive [inhibitor, partial curve]",

Compound,Potency,"activity change, negative = growth inhibition"
Cc1cc(NC(=O)c2c(F)cccc2Cl)n(-c2nc3ccccc3[nH]2)n1,"inconclusive [inhibitor, single point]",
Cc1cc(C(=O)COC(=O)c2ccc(O)cc2)c(C)n1CC1COc2ccccc2O1 (stereo not drawn),"inconclusive [inhibitor, single point]",
Cc1ccc(S(=O)(=O)N2CCCCC2)cc1NC(=O)c1cncc(Br)c1,"inconclusive [inhibitor, single point]",
Cc1ccccc1-c1cccc(CN2CCc3nnc(C(C)NC(=O)c4cccnc4)n3CC2)c1 (stereo not drawn),inactive,
CCc1ccc(S(=O)(=O)N2CCN(c3ccccc3OC)CC2)cc1,inactive,
CCCCCCN1C[C@@H](n2cc(-c3ccc(F)cc3)nn2)[C@H](O)C[C@@H]1c1ccc(OC)cc1,"inconclusive [inhibitor, single point]",
COc1ccc(OC)c(NC(=O)CSCc2cnn(-c3ccccc3)c2-n2cccc2)c1,"inconclusive [inhibitor, single point]",
COc1ccccc1Cc1c(-c2cccc(Cl)c2)nc2ccc(C)cn12,active: 18.4 µM,
COc1cccc(-n2cc(C(=O)NCc3ccccc3OC)c3ccccc3c2=O)c1,"inconclusive [inhibitor, single point]",
CCOc1ccc(CCNC(=O)COc2cccc(-n3cnnn3)c2)cc1OCC,"inconclusive [inhibitor, single point]",
COc1cccc(OCCSc2nc3ccccc3n2CC(=O)N2CCCCC2)c1,"inconclusive [inhibitor, single point]",
COC(=O)c1cc(-c2c(C)nn(-c3ccccc3)c2C)n[nH]1,"inconclusive [inhibitor, single point]",
CC(C)(C)c1ccc(C(=O)N2CCC2(C)C(=O)Nc2ccc3[nH]ncc3c2)cc1 (stereo not drawn),active: 20.6 µM,
O=C(CN1CCN(Cc2ccccc2)CC1)NC(c1ccccc1)c1ccccc1,active: 14.6 µM,
CC(C)Cc1cc(C(=O)N2CCCC(CO)(Cc3ccc(F)cc3)C2)no1 (stereo not drawn),"inconclusive [inhibitor, single point]",
C[C@H](O)[C@@H]1C(=O)N2CCc3c([nH]c4ccccc34)[C@@H]2C[C@@H]1N(C)C(=O)c1cc(Cl)cc(Cl)c1,active: 23.1 µM,
Cc1ccc2c(c1)C1(SC(C)C(=O)N1c1ccc(Cl)cc1)C(=O)N2 (stereo not drawn),active: 6.51 µM,
Cc1oc(S(=O)(=O)N2CCOCC2)cc1C(=O)Nc1ccc(F)cc1,inactive,
Nn1cnnc1N/N=C/c1ccc(Cl)cc1Cl,"inconclusive [inhibitor, full curve, poor fit]",
O=C(c1ccccc1)c1ccc2cc(O)ccc2c1,inactive,
COC(=O)c1cc(S(=O)(=O)NCC2CCN(Cc3cccc(F)c3)CC2)c[nH]1,,inconclusive: -33.8% [inhibitor]
O=C(C[C@H]1C(=O)N(CCc2ccccc2)C[C@@H]1Cc1ccccc1)Nc1ccc(Br)cc1,"inconclusive [inhibitor, single point]",
O=C(COC(=O)c1ccccc1)NCCCCc1ccccc1,inactive,
CC1(C)Cc2c(c(N3CCOCC3)nc3sc4c(NCCN)ncnc4c23)CO1,"inconclusive [inhibitor, single point]",
